PubChem BioAssay AID652106 (National Center for Advancing Translational Sciences (NCATS), 2013)
About 500 (0.14%) of roughly 370,000 compounds were called active. Inconclusive results, whose numbers are uncertain, are shown with a selection of clear calls. Calls follow the shape of the dose curve; as a rule, active = well fitted activation curve with a large enough effect; inconclusive = small, poorly fitted or top-dose-only effect; inactive = no such curve, though single readings can be large or run the other way. Potencies of inconclusive entries are left out as doubtful fits.

Test: qHTS of alpha-syn Inhibitors; also: nearly all actives have a fitted effect of over 65% in size
Settings: Yeast expressing alpha-synuclein, BacTiter-Glo, 24 h; Potency: growth rescue unless noted; series mostly up to 46.1 µM
How it was run: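 Screening used galactose-induced yeast with toxic alpha-synuclein levels, exposed to compound for 24 hr at 30 deg C. Cell growth, read with BacTiter-Glo luminescence, gave the measured signal.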
Potency is read from the fitted curve at half-maximal effect; tags tell the direction and shape of the fitted curve.

Structure (SMILES)	Potency
CCOc1cc(C)c(S(=O)(=O)N2CCCC2)cc1C	inconclusive [activator, partial curve]
O=C(Nc1nc(-c2ccccn2)cs1)c1cc(Cl)ccc1[N+](=O)[O-]	inconclusive [activator, full curve, poor fit]
COc1ccc(C(=O)NCC(C)(C)CNC(=O)c2ccc(OC)c(OC)c2)cc1OC	inconclusive [activator, single point]
CC(=O)c1c(C(C)=O)c(C)n(-c2cccc3cccnc23)c1C	inconclusive [activator, partial curve]
CC1CCCCN1S(=O)(=O)c1ccc(C(=O)Nc2nnc(C3CC3)o2)cc1 (configuration not stated)	inconclusive [activator, single point]
O=C(Nc1cccc(Cl)c1)C1CCCN(C2=NS(=O)(=O)c3ccccc32)C1 (configuration not stated)	inactive
NNC(=O)C1CCN(S(=O)(=O)c2ccc(Cl)cc2)CC1	inactive
CN(C)c1ccc(/C=C/c2ccnc3ccc(Cl)cc23)cc1	inactive
Clc1ccc2c(c1)nc1n2CCCC1	inactive
O=C1C2C3CCCC3=C3CCCC3C2C(=O)N1c1ccccc1Cl (configuration not stated)	inconclusive [activator, single point]
CCOc1ccc(Cl)cc1-c1cc(C(=O)NCc2ccccc2OC)[nH]n1	inconclusive [activator, single point]
N#CC1=C(N)N(c2ccccc2)C(=O)C1	inactive
Cc1sc2ncnc(N3CCC(C(=O)N(C)CC(=O)Nc4ccc(Cl)c(C(F)(F)F)c4)CC3)c2c1C	inconclusive [activator, single point]
O=C1N/C(=N/N=C/c2ccc(F)cc2)SC1c1ccccc1 (configuration not stated)	inactive
O=C1C(Cc2c[nH]c3ccccc23)NC(=S)N1C1CCCCC1 (configuration not stated)	inconclusive [activator, single point]
O=S(=O)(c1ccc(Cl)cc1)n1ccc2cccnc21	inconclusive [activator, single point]
CCC1(C)Cc2ccccc2-c2c1c(=O)n(Cc1ccccc1)c1nnnn21 (configuration not stated)	inactive
O=C(N1CCC(n2nc(-c3ccccc3)oc2=O)CC1)C1(c2ccc(Cl)cc2)CC1	inconclusive [activator, single point]
CCc1ccc(C(=O)Nc2ccc3nn(-c4ccc(C)c(Cl)c4)nc3c2)cc1	inconclusive [activator, single point]
O=C1c2ccccc2NC(c2cc(Br)c3c(c2)OCO3)N1Cc1ccco1 (configuration not stated)	inactive
Cc1ccc2cccc(NC(=O)C(C)(C)Oc3ccc(Br)cc3)c2n1	inactive
Cc1ccc(-c2[nH]nc3c2C(c2ccoc2)C(C#N)=C(N)O3)cc1C (configuration not stated)	inconclusive [activator, partial curve]
CCCOc1cc(C)c(S(=O)(=O)NCc2cccs2)cc1C	active: 10 µM
O=C(CNS(=O)(=O)c1cccc(Cl)c1)OCc1csc(-c2ccccc2)n1	inconclusive [activator, single point]

Structure (SMILES)	Potency
O=C(CSCc1ccco1)NC1CCCC1	inconclusive [activator, single point]
CCc1ccc(N(CC(=O)NC(C)(C)C)C(=O)CCC(=O)Nc2ccccn2)cc1	inactive
CCN(CC)C(=O)CSc1nc2nc(C)cc(C)c2c(=O)[nH]1	inactive
COc1cc(C(=O)/C=C/Nc2ccc(NC(C)=O)cc2)cc(OC)c1OC	inconclusive [activator, partial curve]
Cc1ccc(NC(=O)c2nc[nH]c2C(=O)N[C@@H](C)C(=O)OC(C)(C)C)cc1	inconclusive [activator, partial curve]
COc1cc(C(C[N+](=O)[O-])c2c(C)[nH]c3ccccc23)ccc1O (configuration not stated)	inactive
COc1cccc2c1Oc1ncccc1N(C(=O)CCC(=O)NCc1ccccc1Cl)C2	inconclusive [activator, single point]
CC(C)c1cc(-c2cc(C(=O)Nc3ccccc3)on2)nc(NC2CCCC2)n1	inconclusive [activator, single point]
CC(=O)Nc1ccc(S(=O)(=O)N2CCCN(c3nc(C)cc(C)c3C#N)CC2)cc1	inconclusive [activator, single point]
CSc1cccc(NS(=O)(=O)c2cn(C)c(C)n2)c1	inactive
COc1ccc(-c2nnc3c4ccccc4c(C)nn23)cc1	inconclusive [activator, single point]
O=C(COc1ccccc1-c1ccccc1)N/N=C/c1ccccn1	inconclusive [activator, single point]
Cc1ccc(S(=O)(=O)Nc2cc(Cl)c(O)c3ncccc23)cc1	inconclusive [activator, partial curve]
O=C(O)c1ccc(N/N=C/c2cc3ccccc3nc2Cl)cc1	inconclusive [activator, single point]
CCCCc1cc(=O)oc2cc(OS(C)(=O)=O)ccc12	inactive
O=C1c2cccc3cc([N+](=O)[O-])cc(c23)C(=O)N1/N=C/c1ccc(O)cc1O	inconclusive [activator, single point]
O=C(CCC1CCCCC1)NNC(=O)c1cnccn1	inconclusive [activator, single point]
CC(C)C1C(=O)N(Cc2cn(CCC3OCCO3)nn2)CCS(=O)(=O)N1Cc1ccc(-c2ccccc2C(F)(F)F)cc1 (configuration not stated)	inconclusive [activator, single point]
CCCCc1cc(=O)oc2c(C)c(OCC(=O)N3C[C@H]4C[C@@H](C3)c3cccc(=O)n3C4)ccc12	inconclusive [activator, single point]
CC1=C(C(=O)N(C)C)CC(CC(=O)NCCc2ccccn2)C(=O)N1Cc1ccccc1 (configuration not stated)	inactive
CCCCC(=O)NC(=S)NNC(=O)c1ccc(OC)cc1	active: 6.31 µM
CCOC(=O)c1ccc(NC(=O)CSc2nc(=O)n3cccc(C)c3n2)cc1	inconclusive [activator, single point]
O=C(O)CCCCCCCCc1cn(CN2C(=O)c3ccccc3C2=O)nn1	inconclusive [activator, single point]
CCCCCCSc1ccc([C@H]2N[C@@](C)(C(=O)OC)[C@H]3C(=O)N(C)C(=O)[C@@H]23)cc1	inconclusive [activator, single point]

Structure (SMILES)	Potency
CCN1C[C@@H]2[C@@H]3C(=O)N(C)C(=O)[C@@H]3[C@](C)(C1=O)N2C(=O)c1ccc(C)cc1	inconclusive [activator, single point]
COc1ccccc1N1CCN(C(=O)COc2cccc3ccccc23)CC1	inconclusive [activator, single point]
O=C(c1ccc(CS(=O)Cc2ccccc2Cl)o1)N1CCN(c2cccc(Cl)c2)CC1 (configuration not stated)	inconclusive [activator, single point]
CCCCC1=CC2=C(c3ccco3)C(=O)C(C)(OC(=O)c3ccc(OC)cc3)C(=O)C2=CN1CCCCO (configuration not stated)	inactive
C=C1CCN(c2ccc(C(=O)O)cc2[N+](=O)[O-])CC1	inactive
COC(=O)N1C(=O)[C@](c2ccccc2)(C2CCCCC2)N1C(=O)OC	inactive
Cc1cc(-n2[nH]c(C)c(C)c2=O)nc(-c2ccccc2O)n1	inconclusive [activator, single point]
COc1ccc(Nc2ccnc3ccccc23)cc1	inactive
COc1ccc(-c2coc3cc(OC)cc(OC)c3c2=O)cc1	inconclusive [activator, single point]
CCc1cc2cc(C)ccc2nc1SCC(=O)NC1CCCC1	inconclusive [activator, single point]
O=[N+]([O-])c1ccccc1Oc1ccc(Cl)c2cccnc12	inconclusive [activator, partial curve]
Cc1cc(C(=O)N/N=C/c2sccc2C)no1	inactive
Oc1c(C(Nc2cccc(C(F)(F)F)c2)c2ccncc2)ccc2cccnc12 (configuration not stated)	inconclusive [activator, single point]
CCC1CCCCN1CCCNC(=O)C1CCN(Cc2nc(-c3ccc(Cl)cc3)oc2C)CC1 (configuration not stated)	inactive
CCCCCNC(=O)C(c1cc2ccccc2o1)n1c(=O)c(-c2cc3ccccc3[nH]2)nc2ccccc21 (configuration not stated)	inconclusive [activator, partial curve]
Cc1ccc(C2=CC(c3ccc(C)cc3)n3ncnc3N2)cc1 (configuration not stated)	inconclusive [activator, partial curve]
CC1CC(C)CN(CC(O)COC2CC(C)CC(C)(C)C2)C1 (configuration not stated)	inconclusive [activator, single point]
O=[N+]([O-])c1cc(C=Nc2ccc3ccccc3c2)ccc1Br	inactive
CN(C)c1ccc(/C=C/c2sc3ccccc3[n+]2C)cc1	inactive
COCCCNC(=O)c1cc2c(-c3cccc(OC)c3)nn(C)c2s1	inconclusive [activator, single point]
COC(=O)c1ccc(CSc2nnc(NC(=O)c3cc4c(s3)CCCC4)s2)cc1	inactive
COc1ccc(-c2cc3ncc(C)n3c(Nc3ncccc3C(N)=O)n2)cc1OC	inactive
O=C(Cn1nc(-c2ccco2)ccc1=O)Nc1cc(C(F)(F)F)ccc1Cl	inactive
COc1cc(/C=C/c2cncc(/C=C/c3cc(OC)c(OC)c(OC)c3)c2)cc(OC)c1OC	inactive
